# Test results: PubChem BioAssay AID686979 (National Center for Advancing Translational Sciences (NCATS), 2013)
# Among all 420,000 compounds or so, about 50,000 (12%) were called active. The shares of active, inactive and inconclusive entries below differ from those in the screen. The call rests on the fitted dose curve; in most records, active means well fitted inhibition curve with a large enough effect; inconclusive means small, poorly fitted or top-dose-only effect; inactive means flat fitted curve, though single readings scatter. No potency is given beside an inconclusive call; the fits are too rough.
# Test: qHTS for Inhibitors of human tyrosyl-DNA phosphodiesterase 1 (TDP1): qHTS in cells in presence of CPT; further: nearly all actives have a fitted effect of over 55% in size
# Settings: chicken DT40 Tdp1-/-;hTDP1 cells + 20 nM CPT, ATP luminescence, 48 h; activity change, negative = growth inhibition: at 46.2 µM (top of the series) unless noted
# In short: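 Chicken DT40 Tdp1-/- cells complemented with human TDP1, 400 cells/well, exposed to compounds plus 20 nM camptothecin for at least 48 h at 37 C; viability read as ATP content by CellTiter-Glo luminescence.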
# On the % scale 0 is the no-effect control and ±100 the full control effect; potency means the concentration at half of the fitted maximal effect; tags describe the fitted curve by direction and shape.
Structure (SMILES),Potency,"activity change, negative = growth inhibition"
CCCCCCNC(=O)CSc1nccn1Cc1ccccc1,inactive,
COc1cc(C(=O)NCCN2C(=O)S/C(=C\c3ccc(F)cc3)C2=O)ccc1OCC(=O)N1CCOCC1,active: 16.4 µM,
CS(=O)(=O)N(CC(=O)N1CCCC1)Cc1ccc(Cl)c(Cl)c1,inactive,
CCOc1ccccc1C1CC(=O)Nc2cc3c(cc21)OCCO3 (stereo not drawn),active: 1.03 µM,
Cc1ccc([N+](=O)[O-])cc1S(=O)(=O)n1ccnc1C,active: 20.6 µM,
N#CCCN1CCC(NC(=O)OCc2ccccc2)CCC1=O (stereo not drawn),inactive,
CC(CCN1CCN(c2ccccc2)CC1)c1ccccc1 (stereo not drawn),inactive,
Cc1cc(NC(=O)CSc2nc(C(C)C)nc3ccccc23)no1,"inconclusive [inhibitor, single point]",
COc1ccc(OCc2cccc(C(=O)O)c2)cc1,"inconclusive [inhibitor, single point]",
CCCOc1cccc(C2c3c(oc4ccc(F)cc4c3=O)C(=O)N2CCCN2CCOCC2)c1 (stereo not drawn),inactive,
Cc1ccc(CN(Cc2ccco2)C(=O)c2ccccc2Br)o1,active: 11.6 µM,
CCOC(=O)c1sc2ncn(CC(=O)N(CC)CC)c(=O)c2c1C,"inconclusive [inhibitor, partial curve]",
Cn1c(SCc2ccc(F)cc2)nnc1-c1ccncc1,inactive,
O=Cc1cn(CC(=O)Nc2ccccc2)c2ccccc12,"inconclusive [inhibitor, single point]",
Cc1ccc(/C=N/NC(=O)CN2CCN(Cc3ccccc3)CC2)s1,inactive,
Cc1nc(-c2ccc(S(=O)(=O)N3CCN(c4cccc(C(F)(F)F)c4)CC3)cc2)co1,"inconclusive [inhibitor, single point]",
CCn1c(CNC(=O)COc2ccc(C(C)C)cc2)nnc1SCC(=O)Nc1cc(F)ccc1C,"inconclusive [inhibitor, single point]",
CCCOc1ccc(-c2nonc2NC(=O)c2ccco2)cc1OCCC,"inconclusive [inhibitor, single point]",
O=C(O)C1CC=CCC1C(=O)Nc1ccc(Oc2ccc(Cl)cc2)cc1 (stereo not drawn),"inconclusive [inhibitor, single point]",
O=C(CCn1cnc2ccccc21)N/N=C/c1ccccc1O,"inconclusive [inhibitor, single point]",
CCOc1cc(/C=C2\SC(=NC)N(C)C2=O)c(Br)cc1OC(C)=O,"inconclusive [inhibitor, single point]",
COc1ccc(C2c3[nH]c4ccccc4c3CCN2Cc2ccoc2)c(F)c1 (stereo not drawn),"inconclusive [inhibitor, single point]",
COc1ccccc1NC(=O)C(=O)NCC1COc2ccccc2O1 (stereo not drawn),inactive,
CCn1c(Cc2ccccc2)nnc1SCC(=O)Nc1ccc(N2CCOCC2)c(Cl)c1,"inconclusive [inhibitor, single point]",

Structure (SMILES),Potency,"activity change, negative = growth inhibition"
Cc1cc(C)c2nc(N3CCC(C(=O)NCc4cccnc4)CC3)sc2c1,inactive,
CSCCC(NS(=O)(=O)c1cccc(C(F)(F)F)c1)C(=O)N(C)CCOc1ccc(Cl)cc1 (stereo not drawn),"inconclusive [inhibitor, single point]",
CN(C)C1CN(Cc2cn(Cc3ccc(C(F)(F)F)cc3)nn2)S(=O)(=O)C1 (stereo not drawn),inactive,
COc1ccc(CCNC(=O)CC2SC(=Nc3cc(C)cc(C)c3)NC2=O)cc1OC (stereo not drawn),inactive,
Nc1cc(N)nc(SCC(=O)N2CCc3ccccc32)n1,"inconclusive [inhibitor, partial curve, poor fit]",
CNC(=O)c1[nH]cnc1C(=O)NCC(=O)OCc1ccccc1,inactive,
COC(=O)c1ccc(N2CCc3ccccc32)c([N+](=O)[O-])c1,"inconclusive [inhibitor, single point]",
COc1ccc(-c2nnc(Sc3nc4ccccc4o3)c3ccccc23)cc1,"inconclusive [inhibitor, single point]",
OC(CN1CCC(Cc2ccccc2)CC1)c1ccccc1 (stereo not drawn),inactive,
O=S(=O)(Oc1ccc(C(=S)N2CCOCC2)cc1)c1ccc(Cl)cc1,"inconclusive [inhibitor, single point]",
Cc1cccc(OC(=O)Cn2c(C(F)(F)F)nc3ccccc32)c1,"inconclusive [inhibitor, single point]",
CCc1ccc(NC(=O)Nc2ccncc2)cc1,"inconclusive [inhibitor, single point]",
COCCN1C(=O)N[C@@H](CCc2ccccc2)[C@H](C(=O)OC)[C@H]1C,,inconclusive: -33% [inhibitor]
O=C1CN(CN2CCCCC2)C(=O)CN1CN1CCCCC1,"inconclusive [inhibitor, single point]",
Cc1cc(Br)cc(C)c1NC(=O)c1sc2ncn(Cc3cccc(F)c3)c(=O)c2c1C,active: 16.4 µM,
Cc1ccccc1N1C(=O)c2cccc3c(N(C)CCO)ccc(c23)C1=O,"inconclusive [inhibitor, single point]",
CC1Cc2ccccc2C[N+]1(C)CC(=O)c1cccc([N+](=O)[O-])c1 (stereo not drawn),inactive,
CCOC(=O)c1sc(NC(=O)c2cc3n(n2)C(C(F)(F)F)CC(c2cccs2)N3)c(C(=O)OCC)c1C (stereo not drawn),"inconclusive [inhibitor, single point]",
CN(C)c1cccc2c1c(NC(=O)c1ccc(F)cc1)nn2C,"inconclusive [inhibitor, single point]",
O=C(NC1(C(F)(F)F)N=C(c2ccccc2)NC1=O)c1ccccc1F (stereo not drawn),inactive,
Cc1cc(S(=O)(=O)Nc2ccc(C(=O)NCCCN3CCOCC3)cc2)ccc1F,inactive,
COc1cc(CNc2ccc3[nH]c(=O)[nH]c3c2)ccc1OCc1ccccc1,"inconclusive [inhibitor, single point]",
CCOc1ccc(-c2nnn(CCC#N)n2)cc1OC,"inconclusive [inhibitor, single point]",
CC(=O)Nc1ccc(S(=O)(=O)NCCSCc2ccc(Cl)cc2Cl)cc1,"inconclusive [inhibitor, single point]",
